# Experimental data: the supplement of paper PMC6135742
# Several values for one entry are separate records, joined by “and”; a condition that tells them apart may be missing. Identical values can stand only once. Counter-ions that a name gives are not always drawn. ± gives the standard deviation of the averaged measurements. Over roughly 2,600 compounds, “MBP+ mature oligodendrocyte number relative to DMSO vehicle control” has its median near -0.34; the highest 2% begin near 13. This is one part of the list.
# System: jimpy (Plp1 jimpy) mouse iPSC-derived oligodendrocyte progenitor cells
# Assay: MBP+ mature oligodendrocyte number relative to DMSO vehicle control (SDs above negative control mean); higher = more surviving jimpy oligodendrocytes (rescue)
# Conditions: 10 µM; 3 days
# 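Also: 10 µM single dose with 3-day oligodendrocyte differentiation.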
row,Compound,MBP+ mature oligodendrocyte number
1,CCCCOc1ccc(CC(=O)NO)cc1 [Bufexamac],2.25
2,Cc1cc(C)cc(NC(=O)Cc2ccc(OC(C)(C)C(=O)O)cc2)c1 [Efaproxiral Sodium],2.86
3,CCCCC[C@H](CC(=O)NO)C(=O)N[C@H](C(=O)N1CCC[C@H]1CO)C(C)C [Actinonin],-0.708
4,Cc1ccc(O)c([C@H](CCN(C(C)C)C(C)C)c2ccccc2)c1 [Tolterodine tartrate],-2.91
5,Cc1nc(N=Nc2ccc(S(=O)(=O)O)cc2S(=O)(=O)O)c(COP(=O)(O)O)c(C=O)c1O,-0.247
6,CCCCCCCCCCCCCCCCO [1-Hexadecanol],0.491
7,"CN(C)C(=O)N=NC(=O)N(C)C [N,N,N',N'-Tetramethylazodicarboxamide]",-0.596
8,CCN1/C(=C/C(C)=O)Sc2ccc(OC)cc21,-3.37 ± 1.6
9,Cc1c(O)cccc1C(=O)N[C@@H](CSc1ccccc1)[C@H](O)CN1C[C@H]2CCCC[C@H]2C[C@H]1C(=O)NC(C)(C)C [Nelfinavir mesylate hydrate],-2.69
10,Nc1ccn([C@@H]2O[C@H](CO)[C@@H](O)[C@H]2O)c(=O)n1 [Cytidine],0.883
11,CN(C)CCC(c1ccccc1)c1ccccn1 (configuration not stated) [Pheniramine maleate],0.61
12,CN(C)CCC(c1ccccc1)c1ccccn1 (configuration not stated) [Pheniramine Maleate],1.76
13,Cc1cccc(Nc2nc(-c3ccncc3)cs2)c1,-6.61
14,CCOc1ccc(Cc2cc([C@@H]3O[C@H](CO)[C@@H](O)[C@H](O)[C@H]3O)ccc2Cl)cc1 [Dapagliflozin],1.78
15,CN(C)CCN1C(=O)c2cccc3cc(N)cc(c23)C1=O [Amonafide],< -6.7
16,O[C@@H]1CO[C@H]2[C@@H]1OC[C@@H]2O [Isosorbide],2.1
17,COc1ccc(/C=C2\COc3ccc(C)cc3C2=O)cc1O,-3.75
18,"COC1=C(OC)C(=O)c2ccccc2C1=O [2,3-Dimethoxy-1,4-naphthoquinone]",-4.41
19,CCCNS(=O)(=O)Nc1ncnc(OCCOc2ncc(Br)cn2)c1-c1ccc(Br)cc1 [Macitentan],2.07
20,CC(CCc1ccc(O)cc1)NCCc1ccc(O)c(O)c1 (configuration not stated) [Dobutamine hydrochloride],-1.33
21,N[C@@H](CCC(=O)N[C@@H](CSN=O)C(=O)NCC(=O)O)C(=O)O [S-Nitrosoglutathione],-0.951
22,CCCCNc1ncc(-c2ccc(CN3CCOCC3)cn2)c(NC2CCC(O)CC2)n1 (configuration not stated),-4.15
23,CCOc1nc2cccc(C(=O)OC(C)OC(=O)OC3CCCCC3)c2n1Cc1ccc(-c2ccccc2-c2nn[nH]n2)cc1 (configuration not stated) [Candesartan Cilexetil],1.51
24,CCOc1nc2cccc(C(=O)OC(C)OC(=O)OC3CCCCC3)c2n1Cc1ccc(-c2ccccc2-c2nn[nH]n2)cc1 (configuration not stated) [Candesartan cilexetil],-1.35
25,COc1ccc(-c2oc3c(CC=C(C)C)c(O)cc(O)c3c(=O)c2O)cc1 [Icaritin],-3.18
26,O=c1cc(O)cc(/C=C/c2ccc(O)c(O)c2)o1 [Hispidin],-0.178

row,Compound,MBP+ mature oligodendrocyte number
1,CCN1CCC[C@H]1CNC(=O)c1cc(S(N)(=O)=O)ccc1OC [Levosulpiride],6.1
2,Nc1ccc(S(N)(=O)=O)cc1 [Sulfanilamide],1.24
3,Cn1c(=O)c(F)c(Nc2ccc(I)cc2F)c2c(=O)n(C[C@@H](O)CO)cnc21,-5.69
4,COc1ccc(-c2cc3c(C)nc(N)nc3n([C@H]3CC[C@H](OCCO)CC3)c2=O)cn1,< -6.01
5,CC(C)N(CCC(=O)c1ccc2ccccc2c1)Cc1ccccc1,-1.5 and -1.1
6,"CC(C)(C)C#Cc1cc(N(C(=O)[C@H]2CC[C@H](C)CC2)[C@H]2CC[C@H](O)CC2)c(C(=O)O)s1 [VX-222 (VCH-222, Lomibuvir)]",1.16
7,CCOC(=O)c1ccc(C#Cc2ccc3c(c2)C(C)(C)CCS3)nc1 [Tazarotene],-0.345 ± 0.97
8,CCC(C)(C)c1ccc(CC(C)CN2C[C@@H](C)O[C@@H](C)C2)cc1 (some centres not stated) [Amorolfine HCl],28.8
9,COc1ccc(CCN(C)CCCC(C#N)(c2ccc(OC)c(OC)c2)C(C)C)cc1OC (racemic) [(±)-Verapamil hydrochloride],-2.6
10,COc1ccc(CCN(C)CCCC(C#N)(c2ccc(OC)c(OC)c2)C(C)C)cc1OC (racemic) [Verapamil HCl],-2.38
11,CNC1(C)C2CCC(C2)C1(C)C (configuration not stated) [Mecamylamine hydrochloride],-0.872
12,O=C(NCc1ccc(Oc2ccccc2)cc1)c1nc(-c2cc(Br)c(O)c(Br)c2)no1,0.829
13,CCCCCCCCCCCCCCCC[N+](C)(C)C [Cetrimonium Bromide (CTAB)],< -6.35
14,Cc1c(Cn2c(C)nc3c(C(=O)O)cc(N4CCOCC4)cc32)cccc1C(F)(F)F,2.25
15,COc1cccc(OC)c1-c1cc(C(=O)NC2(C(=O)O)C3CC4CC(C3)CC2C4)nn1-c1ccc(C(=O)N(C)CCCN(C)C)cc1C(C)C (configuration not stated),1.39
16,Cn1c(=O)c2c(ncn2CC(O)CO)n(C)c1=O (configuration not stated) [Dyphylline],0.0731
17,CCCc1nc(C(C)(C)O)c(C(=O)OCc2oc(=O)oc2C)n1Cc1ccc(-c2ccccc2-c2nnn[nH]2)cc1 [Olmesartan Medoxomil],-1.1
18,NC(=O)c1cccnc1 [Nicotinamide (Vitamin B3)],0.253
19,Nc1nccs1 [Aminothiazole],3.03
20,CC(C)[C@H](NC(=O)c1ccc2ccccc2n1)C(=O)N[C@@H](CC(=O)O)C(=O)COc1c(F)cccc1F,24.8
21,CC(C)(Oc1ccc(C2CC2(Cl)Cl)cc1)C(=O)O (configuration not stated) [Ciprofibrate],1.18 ± 0.72
22,Cc1[nH]c(/C=C2\C(=O)Nc3ccc(S(=O)(=O)Cc4c(Cl)cccc4Cl)cc32)c(C)c1C(=O)N1CCC[C@@H]1CN1CCCC1,< -6.7
23,COc1ccc(CNCc2cccc3ccccc23)cc1,-1.56
24,NC(=O)[C@@H](CCC(F)(F)F)N(Cc1ccc(-c2ncon2)cc1F)S(=O)(=O)c1ccc(Cl)cc1,4.21
25,N#CC(=C(/N)Sc1ccccc1N)/C(C#N)=C(\N)Sc1ccccc1N [U0126 monoethanolate],0.273
26,N#CC(=C(/N)Sc1ccccc1N)/C(C#N)=C(\N)Sc1ccccc1N,-2.51
